The whole screen tested about 310,000 compounds, of which about 14,000 (4.5%) showed an effect of 50% or more. The effect is printed as a negative number. Some of the results follow.
The molecules below were run against human ether-à-go-go-related gene (hERG) potassium channel (human, UniProt Q12809) (assay: primary screen, population patch clamp on CHO cells stably expressing hERG).
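Note: peak tail current of the secondary pulse compared with the same well before compound.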

Sequence of human ether-à-go-go-related gene (hERG) potassium channel (Q12809 whole entry, looked up): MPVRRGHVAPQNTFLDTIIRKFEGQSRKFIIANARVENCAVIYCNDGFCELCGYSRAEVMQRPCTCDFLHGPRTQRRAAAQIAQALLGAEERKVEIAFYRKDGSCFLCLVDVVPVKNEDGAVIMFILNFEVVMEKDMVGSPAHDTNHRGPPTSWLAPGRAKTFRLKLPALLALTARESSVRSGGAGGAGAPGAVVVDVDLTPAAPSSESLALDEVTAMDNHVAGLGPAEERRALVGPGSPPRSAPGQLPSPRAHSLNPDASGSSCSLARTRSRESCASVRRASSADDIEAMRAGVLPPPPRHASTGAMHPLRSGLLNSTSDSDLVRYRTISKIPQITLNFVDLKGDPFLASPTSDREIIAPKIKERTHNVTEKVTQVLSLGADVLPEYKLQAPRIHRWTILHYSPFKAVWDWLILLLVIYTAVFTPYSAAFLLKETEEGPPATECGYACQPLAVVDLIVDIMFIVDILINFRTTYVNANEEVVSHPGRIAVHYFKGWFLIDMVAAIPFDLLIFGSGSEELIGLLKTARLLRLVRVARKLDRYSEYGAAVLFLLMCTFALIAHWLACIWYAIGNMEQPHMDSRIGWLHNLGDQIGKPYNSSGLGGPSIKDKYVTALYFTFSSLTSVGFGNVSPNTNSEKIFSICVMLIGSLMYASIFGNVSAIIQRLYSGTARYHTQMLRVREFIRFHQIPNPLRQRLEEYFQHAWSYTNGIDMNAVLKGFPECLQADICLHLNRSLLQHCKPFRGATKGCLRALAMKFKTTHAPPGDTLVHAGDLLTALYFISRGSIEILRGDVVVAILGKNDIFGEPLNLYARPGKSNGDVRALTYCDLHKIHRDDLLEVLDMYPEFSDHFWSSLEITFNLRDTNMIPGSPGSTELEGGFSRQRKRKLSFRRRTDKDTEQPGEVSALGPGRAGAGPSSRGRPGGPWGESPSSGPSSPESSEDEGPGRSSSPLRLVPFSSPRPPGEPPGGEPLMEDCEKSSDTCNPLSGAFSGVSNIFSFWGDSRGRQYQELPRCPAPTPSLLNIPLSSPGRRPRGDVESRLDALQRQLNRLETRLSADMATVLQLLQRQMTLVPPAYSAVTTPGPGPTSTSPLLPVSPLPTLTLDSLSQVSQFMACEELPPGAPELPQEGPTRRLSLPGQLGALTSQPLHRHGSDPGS

| SMILES | hERG current change (%, negative = inhibition) at 10uM [%] |
| --- | --- |
| CCOCC(=O)Nc1ccc(Br)c(C)c1 | 4.88 |
| COc1ccc(CNC(=O)CS(=O)(=O)Cc2nc(-c3ccc(OC)cc3)oc2C)cc1 | -0.761 |
| NC(=O)N/N=C\c1cc(Br)ccc1O | 1.55 |
| O=S(=O)(Nc1nc2ccccc2s1)c1ccc(Cl)s1 | 2.76 |
| CCOC(=O)/C(=C/Nc1ccc(F)cc1)[N+](=O)[O-] | 14.5 |
| COc1ccccc1NC(C)C(=O)N/N=C/c1ccccc1OCc1cccc(Br)c1 (stereo not drawn) | 3.13 |
| COC(=O)c1c(NC(=S)NC(=O)c2ccco2)sc2c1CCCC2 | 7.8 |
| COc1cc(C2C(C#N)=C(C)NC3=C2C(=O)CC(C)(C)C3)ccc1OCCO (stereo not drawn) | 13.9 |
| O=C(c1cc2ccccc2cc1O)N1CCN(c2ccc([N+](=O)[O-])cc2)CC1 | -40.3 |
| CN(C)C(=O)COC(=O)c1cccc(CN2C(=O)c3ccccc3C2=O)c1 | 9.1 |
| CCCCOc1ccc(S(=O)(=O)NC(=O)NCc2ccc(OCCC)cc2)cc1 | 1.08 |
| CCCCn1c(=O)[nH]c(=O)c2c(C(=O)OCC)cc(-c3ccc(OC(F)F)cc3)nc21 | 14.5 |
| COc1ccc(NC(=O)C2CCCN2C(=O)Nc2cccc(F)c2)cc1 (stereo not drawn) | -3.77 |
| CSc1nc(=S)cc(C)[nH]1 | 3.88 |
| O=C(NCc1ccccn1)c1ccc(NS(=O)(=O)c2ccccc2)cc1 | 0.108 |
| COc1ccccc1C(=O)NC(CCSC)C(=O)N1CCN(C(C)=O)CC1 (stereo not drawn) | -0.345 |
| Cc1cc(OC(C)C(=O)NCc2ccccn2)c2c(C)cc(=O)oc2c1 (stereo not drawn) | -9.69 |
| COc1ccccc1C(=O)Nc1ccnn1C1CCN(C/C=C/c2ccccc2)CC1 | -78.9 |
| COc1ccccc1NS(=O)(=O)c1cc(NC(=O)CCNC(C)=O)ccc1N1CCCCC1 | -13.8 |
| COC(=O)c1sc2cnccc2c1N | 13.7 |
| CC(C)N(C(=O)CN1CCN(S(=O)(=O)c2ccc(Br)s2)CC1)C(C)C | -17.4 |
| O=C(OC(C(=O)c1c[nH]c2ccccc12)c1ccccc1)c1cnccn1 (stereo not drawn) | 1.77 |
| O=C(NCc1ccccc1C(F)(F)F)C1CCC(=O)N(CCCc2ccccc2)C1 (stereo not drawn) | -13.8 |

| SMILES | hERG current change (%, negative = inhibition) at 10uM [%] |
| --- | --- |
| COC(=O)c1cc(Br)c(=O)n(-c2ccccn2)c1 | 12.5 |
| Cc1ccc(NC(=O)CSc2nc3ccccc3c(=O)n2CCCN2CCCCC2)cc1Cl | -73.7 |
| CCOc1ccc(NC(=O)CN(C)C(=O)c2cc3c(s2)CCCCC3)cc1OCC | -3.41 |
| CCN1CCN(c2ccc(NC(=O)c3cc(S(=O)(=O)N4CCCC4)ccc3Cl)cc2)CC1 | -27.7 |
| COc1ccc(CNc2ccc(C)c(C)c2)cc1 | 11.8 |
| O=C(NCCN1CCN(C(=O)c2cccs2)CC1)c1cccs1 | -35.8 |
| CCCn1nc(NC(=O)C2CCCO2)c2cc3cc(C)ccc3nc21 (stereo not drawn) | -30.6 |
| COc1ccc([C@H]2C=C3CN(C(=O)OC(C)(C)C)S(=O)(=O)[C@H]3C[C@H]2OC(=O)c2ccc(C(F)(F)F)cc2)cc1 | 12.7 |
| O=C(CCCCCN1C(=O)c2cccc3cccc(c23)C1=O)N1CCOCC1 | -21.8 |
| O=C(CSCc1ccc(Cl)cc1)N1CCOCC1 | -4.25 |
| CC(=O)Nc1nonc1NC(=O)c1ccc(F)cc1 | 21.6 |
| Cc1ccc(NC(=O)CCNS(=O)(=O)c2cccc3nsnc23)cc1 | -3.66 |
| COC(=O)c1ccc2[nH]c3c(c2c1)CC(C)CC3 (stereo not drawn) | 17.8 |
| O=C(CSc1nc(-c2ccccc2)cc(C(F)(F)F)n1)NCc1cccs1 | 14.4 |
| COc1cccc(C(=O)N(Cc2nc(-c3ccc(C)cc3)no2)C(C)C)c1 | 6.99 |
| O=C(C(=O)N1CCc2ccccc2C1)c1c[nH]c2ccccc12 | 8.82 |
| CC1(C)C=Cc2c(c3ccccc3[nH]c2=O)O1 | -6.75 |
| CCOC(=O)CSC(CC)C(=O)Nc1nnc(CC)s1 (stereo not drawn) | -2.06 |
| NNC(=O)C1CC(O)CN1S(=O)(=O)c1ccc2ccccc2c1 (stereo not drawn) | 8.01 |
| O=C(CSc1n[nH]c(=O)n1-c1cccnc1)Nc1ccccc1 | 19.4 |
| Cl.OC(COc1c(F)cc(Br)cc1F)CN1CCN(c2ccc(F)cc2)CC1 (stereo not drawn) | -25.7 |
| S=C(NCc1ccc(Cl)cc1)Nc1ccncc1 | -13.6 |
